# This is one part of the list.
# Test system: HSkMC (human skeletal muscle cells)
# Test: cytotoxicity call (relative viability < 0.9)
# Settings: 10 µM
row,SMILES,cytotoxicity call
1,C[C@H]1CN([C@@H](C)CO)C(=O)c2cc(NC(=O)Nc3ccc4c(c3)OCO4)ccc2O[C@@H]1CN(C)S(=O)(=O)c1cn(C)cn1,inactive
2,C[C@@H]1CN([C@@H](C)CO)S(=O)(=O)c2ccc(C#Cc3ccccc3F)cc2O[C@@H]1CN(C)CC1CCOCC1,inactive
3,O=C(C[C@@H]1CC[C@@H]2[C@H](COC[C@@H](O)CN2S(=O)(=O)c2ccc(Oc3ccccc3)cc2)O1)NCCN1CCCCC1,inactive
4,COc1ccc(CN(C)C[C@@H]2OCCCC[C@@H](C)Oc3ccc(NC(=O)Nc4ccc(F)cc4)cc3C(=O)N([C@@H](C)CO)C[C@H]2C)cc1,inactive
5,C[C@@H]1CN([C@H](C)CO)C(=O)c2cc(NC(=O)Nc3ccc(C(F)(F)F)cc3)ccc2O[C@H]1CN(C)C(=O)NC1CCCCC1,inactive
6,C[C@H](CO)N1C[C@H](C)[C@@H](CN(C)Cc2ccc(O)cc2)OCc2ccccc2-c2c(n(C)c3ccccc23)C1=O,inactive
7,COc1ccc(COC[C@]23N=C4SCCCN4[C@H](c4ccccc4O2)[C@H]3COC(=O)c2ccccc2)cc1,inactive
8,Cc1noc(C)c1S(=O)(=O)N(C)C[C@@H]1Oc2ccc(NS(=O)(=O)c3cccs3)cc2CC(=O)N([C@H](C)CO)C[C@H]1C,inactive
9,C[C@H]1CN([C@@H](C)CO)C(=O)c2cc(NC(=O)Cc3cn(C)c4ccccc34)ccc2O[C@@H]1CN(C)Cc1ccc(Cl)c(Cl)c1,active
10,C[C@H]1CCCCO[C@@H](CN(C)CC2CCCCC2)[C@@H](C)CN([C@@H](C)CO)C(=O)c2cc(NC(=O)Nc3ccc(C(F)(F)F)cc3)ccc2O1,active
11,CC(C)NCC(O)COc1cccc2[nH]c3ccccc3c12 (centres undefined),inactive
12,Cl.NC(Cc1ccc(Cl)cc1)C(=O)O (racemic),inactive
13,C[C@H](CO)N1C[C@H](C)[C@@H](CN(C)Cc2ccncc2)Oc2c(NS(=O)(=O)c3cn(C)cn3)cccc2C1=O,inactive
14,Cc1nc(COP(=O)(O)O)cc2c1[O][Mn][O]c1c(cc(COP(=O)(O)O)nc1C)CN(CC(=O)O)CCN(CC(=O)O)C2,inactive
15,Cc1ccc(S(=O)(=O)N(C)C[C@H]2OCCCC[C@@H](C)Oc3ccc(NC(=O)Nc4ccccc4)cc3C(=O)N([C@H](C)CO)C[C@H]2C)cc1,inactive
16,COc1ccc(S(=O)(=O)N[C@@H]2C=C[C@H](CC(=O)N3CCN(c4ccccc4)CC3)O[C@H]2CO)cc1,inactive
17,COCC#Cc1cnc2c(c1)C(=O)N([C@@H](C)CO)C[C@@H](C)[C@H](CN(C)S(=O)(=O)c1cn(C)cn1)O2,inactive
18,O=C(C[C@@H]1CC[C@H](NC(=O)c2cnccn2)[C@@H](CO)O1)NCc1ccccc1F,inactive
19,COc1cccc(C#Cc2cnc3c(c2)C(=O)N([C@H](C)CO)C[C@@H](C)[C@@H](CN(C)C(=O)C2CCC2)O3)c1,inactive
20,CC(C)(C)[S@@](=O)N1Cc2cc(C(=O)NCc3ccc4c(c3)OCO4)nc(CCN3CCOCC3)c2[C@H]1CCO,inactive
21,O=C(CCCCCC(=O)Nc1ccccc1O)N/N=C/[C@H](O)[C@@H](O)[C@H](O)[C@H](O)CO[C@H]1O[C@H](CO)[C@H](O)[C@H](O)[C@H]1O,inactive
22,COc1ccc2c(c1)OCC(Cc1ccc(O)c(OC)c1)C2=O (centres undefined),inactive
23,Cc1ccc(-c2ccc3c(c2)O[C@H](CN(C)Cc2cncnc2)[C@@H](C)CN([C@@H](C)CO)S3(=O)=O)cc1,inactive
24,Cc1noc(C)c1S(=O)(=O)Nc1ccc2c(c1)C(=O)N([C@H](C)CO)C[C@H](C)[C@H](CN(C)S(=O)(=O)c1cn(C)cn1)OCCCC[C@@H](C)O2,inactive
25,CNC(=O)c1ccc(OC(C)=O)cc1,inactive
26,Nc1ccc(S(=O)(=O)Nc2ccccn2)cc1,inactive
27,C[C@H](CO)N1C[C@H](C)[C@@H](CN(C)S(=O)(=O)c2ccc(F)cc2)Oc2ccc(NS(=O)(=O)c3cccs3)cc2C1=O,inactive
28,N[C@H]1CC[C@H]2CN(Cc3ccc(Cl)c([N+](=O)[O-])c3)C[C@H]21,inactive
29,COc1ccc(NC(=O)Nc2ccc3c(c2)C(=O)N([C@@H](C)CO)C[C@@H](C)[C@@H](CN(C)C(=O)Cc2ccccc2)OCCCC[C@@H](C)O3)cc1,inactive

# Test system: HepG2
# Test: cytotoxicity call (relative viability < 0.9)
# Settings: 10 µM
row,SMILES,cytotoxicity call
1,CO[C@@H]1CN(C)C(=O)c2ccc(NC(=O)c3nc4ccccc4s3)cc2OC[C@@H](C)N(Cc2ccccc2)C[C@H]1C,inactive
2,COCC(=O)Nc1ccc2c(c1)C(=O)N(C)[C@H]1CC[C@H](CC(=O)NCc3ccc(OC)cc3)O[C@H]1CO2,inactive
3,C[C@@H]1CCCCO[C@H](CN(C)C(=O)Nc2ccccc2)[C@H](C)CN([C@@H](C)CO)C(=O)c2cc(NC(=O)c3ccncc3)ccc2O1,inactive
4,COc1ccc(S(=O)(=O)N[C@@H]2C=C[C@H](CC(=O)N3CCN(c4ccccc4)CC3)O[C@@H]2CO)cc1,inactive
5,Nc1cnn(-c2ccccc2)c(=O)c1N,inactive
6,CO[C@@H]1CN(C)C(=O)c2cc(NS(C)(=O)=O)ccc2OC[C@@H](C)N(C(=O)c2ccc3c(c2)OCO3)C[C@H]1C,inactive
7,C[C@H]1CN([C@@H](C)CO)C(=O)Cc2cc(NC(=O)C3CCCCC3)ccc2O[C@H]1CN(C)S(=O)(=O)c1cn(C)cn1,inactive
8,COCC(=O)N(C)C[C@H]1Oc2cc(C#CCN(C)C)ccc2S(=O)(=O)N([C@H](C)CO)C[C@H]1C,inactive
9,O=C(CN1CCOCC1)NCC[C@@H]1CC[C@H](NS(=O)(=O)c2ccc(F)cc2)[C@@H](CO)O1,inactive
10,C[C@@H]1CCCCO[C@H](CN(C)S(=O)(=O)c2ccc(F)cc2)[C@@H](C)CN([C@H](C)CO)C(=O)c2cc(NC(=O)c3ccccc3)ccc2O1,inactive
11,C[C@@H]1CCCCO[C@@H](CN(C)C(=O)Nc2ccc(C(F)(F)F)cc2)[C@H](C)CN([C@@H](C)CO)C(=O)c2cc(NC(=O)CCC(F)(F)F)ccc2O1,inactive
12,C[C@H]1CN([C@@H](C)CO)C(=O)c2cc(NC(=O)Nc3ccc4c(c3)OCO4)ccc2O[C@@H]1CN(C)S(=O)(=O)c1cn(C)cn1,inactive
13,C[C@@H]1CN([C@@H](C)CO)S(=O)(=O)c2ccc(C#Cc3ccccc3F)cc2O[C@@H]1CN(C)CC1CCOCC1,inactive
14,O=C(C[C@@H]1CC[C@@H]2[C@H](COC[C@@H](O)CN2S(=O)(=O)c2ccc(Oc3ccccc3)cc2)O1)NCCN1CCCCC1,inactive
15,COc1ccc(CN(C)C[C@@H]2OCCCC[C@@H](C)Oc3ccc(NC(=O)Nc4ccc(F)cc4)cc3C(=O)N([C@@H](C)CO)C[C@H]2C)cc1,active
16,C[C@@H]1CN([C@H](C)CO)C(=O)c2cc(NC(=O)Nc3ccc(C(F)(F)F)cc3)ccc2O[C@H]1CN(C)C(=O)NC1CCCCC1,inactive
17,C[C@H](CO)N1C[C@H](C)[C@@H](CN(C)Cc2ccc(O)cc2)OCc2ccccc2-c2c(n(C)c3ccccc23)C1=O,inactive
18,COc1ccc(COC[C@]23N=C4SCCCN4[C@H](c4ccccc4O2)[C@H]3COC(=O)c2ccccc2)cc1,inactive
19,Cc1noc(C)c1S(=O)(=O)N(C)C[C@@H]1Oc2ccc(NS(=O)(=O)c3cccs3)cc2CC(=O)N([C@H](C)CO)C[C@H]1C,inactive
20,C[C@H]1CN([C@@H](C)CO)C(=O)c2cc(NC(=O)Cc3cn(C)c4ccccc34)ccc2O[C@@H]1CN(C)Cc1ccc(Cl)c(Cl)c1,inactive

row,SMILES,cytotoxicity call
1,C[C@H]1CCCCO[C@@H](CN(C)CC2CCCCC2)[C@@H](C)CN([C@@H](C)CO)C(=O)c2cc(NC(=O)Nc3ccc(C(F)(F)F)cc3)ccc2O1,active
2,CC(C)NCC(O)COc1cccc2[nH]c3ccccc3c12 (centres undefined),active
3,Cl.NC(Cc1ccc(Cl)cc1)C(=O)O (racemic),inactive
4,C[C@H](CO)N1C[C@H](C)[C@@H](CN(C)Cc2ccncc2)Oc2c(NS(=O)(=O)c3cn(C)cn3)cccc2C1=O,inactive
5,Cc1nc(COP(=O)(O)O)cc2c1[O][Mn][O]c1c(cc(COP(=O)(O)O)nc1C)CN(CC(=O)O)CCN(CC(=O)O)C2,inactive
6,Cc1ccc(S(=O)(=O)N(C)C[C@H]2OCCCC[C@@H](C)Oc3ccc(NC(=O)Nc4ccccc4)cc3C(=O)N([C@H](C)CO)C[C@H]2C)cc1,inactive
7,COc1ccc(S(=O)(=O)N[C@@H]2C=C[C@H](CC(=O)N3CCN(c4ccccc4)CC3)O[C@H]2CO)cc1,inactive
8,COCC#Cc1cnc2c(c1)C(=O)N([C@@H](C)CO)C[C@@H](C)[C@H](CN(C)S(=O)(=O)c1cn(C)cn1)O2,inactive
9,O=C(C[C@@H]1CC[C@H](NC(=O)c2cnccn2)[C@@H](CO)O1)NCc1ccccc1F,inactive
10,COc1cccc(C#Cc2cnc3c(c2)C(=O)N([C@H](C)CO)C[C@@H](C)[C@@H](CN(C)C(=O)C2CCC2)O3)c1,inactive
11,CC(C)(C)[S@@](=O)N1Cc2cc(C(=O)NCc3ccc4c(c3)OCO4)nc(CCN3CCOCC3)c2[C@H]1CCO,inactive
12,O=C(CCCCCC(=O)Nc1ccccc1O)N/N=C/[C@H](O)[C@@H](O)[C@H](O)[C@H](O)CO[C@H]1O[C@H](CO)[C@H](O)[C@H](O)[C@H]1O,inactive
13,COc1ccc2c(c1)OCC(Cc1ccc(O)c(OC)c1)C2=O (centres undefined),inactive
14,Cc1ccc(-c2ccc3c(c2)O[C@H](CN(C)Cc2cncnc2)[C@@H](C)CN([C@@H](C)CO)S3(=O)=O)cc1,inactive
15,Cc1noc(C)c1S(=O)(=O)Nc1ccc2c(c1)C(=O)N([C@H](C)CO)C[C@H](C)[C@H](CN(C)S(=O)(=O)c1cn(C)cn1)OCCCC[C@@H](C)O2,inactive
16,CNC(=O)c1ccc(OC(C)=O)cc1,inactive
17,Nc1ccc(S(=O)(=O)Nc2ccccn2)cc1,inactive
18,C[C@H](CO)N1C[C@H](C)[C@@H](CN(C)S(=O)(=O)c2ccc(F)cc2)Oc2ccc(NS(=O)(=O)c3cccs3)cc2C1=O,inactive
19,N[C@H]1CC[C@H]2CN(Cc3ccc(Cl)c([N+](=O)[O-])c3)C[C@H]21,inactive
20,COc1ccc(NC(=O)Nc2ccc3c(c2)C(=O)N([C@@H](C)CO)C[C@@H](C)[C@@H](CN(C)C(=O)Cc2ccccc2)OCCCC[C@@H](C)O3)cc1,inactive

# — the antibiotic and cytotoxicity screens of Wong et al. (2023)
